The campaign covered roughly 45,000 compounds. About 200 (0.44%) were called active. Another 7% or so got no clear call; they are omitted. The call rests on the fitted dose curve; in most records, active means well fitted activation curve with a large enough effect; inconclusive means small, poorly fitted or top-dose-only effect; inactive means no such curve, though single readings can be large or run the other way. The list shows a part of the results.

A short description of this assay: qHTS of TDP-43 Inhibitors: NCGC Sytravon Library Screen. Further: 0% is about no effect; nearly all actives have a fitted effect of over 55% in size. The conditions noted are these: yeast TDP-43 toxicity rescue, BacTiter-Glo growth, 24 h; series mostly up to 46.1 µM; growth rescue (activation): at the top concentration. The essentials: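 TDP-43-expressing yeast, pregrown in raffinose, seeded at OD600 0.02 in galactose medium with compound for 24 hr at 30 deg C. Growth read by BacTiter-Glo luminescence, so rescue of toxicity appears as activation.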
A general note: qHTS replaces the single test concentration by a dilution series.
With `O=C(CCN1c2ccccc2Sc2ccccc21)Oc1ccccc1`, the “growth rescue (activation)” value was inactive: -19.6%. On to `O=c1[nH]nc2c3ccccc3cnn12`, for which the “growth rescue (activation)” value is inactive: 10.7%. Take `O=C(CN(C(=O)c1csnn1)c1cccc(C(F)(F)F)c1)NCCc1ccccc1`: the “growth rescue (activation)” value was inactive: 5.27%. As to `O=c1[nH]c(CN2CCN(S(=O)(=O)c3ccc4c(c3)OCCO4)CC2)nc2sc3c(c12)CCCC3`, the “growth rescue (activation)” value was inactive: 13.4%. To `COC(=O)c1ccccc1NC(=O)COC(=O)c1ccco1` belongs inactive: 19.6%; to `CC(C)NC(=O)c1ccc2c(c1)S(=O)(=O)c1ccccc1C2=O`, inactive: -25.8%. Take `COC(=O)c1ccc(NC(=O)Nc2cccc(F)c2)cc1`: the “growth rescue (activation)” value is inactive: 16.5%.

For `Cc1ccc(CN2CCN(/N=C/c3ccc(N(C)C)cc3)CC2)cc1`, the “growth rescue (activation)” value is inactive: 4.89%. With `CCOC(=O)c1c(CNc2ccncc2)n(C)c2cc(Br)c(O)cc12`, the “growth rescue (activation)” value is inactive: -13.9%. On to `O=S(=O)(/N=C(/Nc1nccs1)c1ccc(F)cc1)c1ccccc1`, for which the “growth rescue (activation)” value was inactive: -4.09%. `CCN(CC(=O)NCc1ccc(F)cc1)Cc1cc(=O)n2ccsc2n1`: the “growth rescue (activation)” value was inactive: 18%.

For `COc1ccccc1NS(=O)(=O)c1cc(NC(=O)Cn2cnc3c2c(=O)n(C)c(=O)n3C)ccc1C`, the “growth rescue (activation)” value is inactive: -2.98%.

On to `COc1cccc(N2CCN(Cc3nnnn3C3CCCCC3)CC2)c1`, for which the “growth rescue (activation)” value was inactive: 3.88%. For `COc1ccc(C(=O)Nc2ccnn2C2CCN(C(=O)c3cnsn3)CC2)cc1` the value was inactive: 2.04%; for `CC(C)CNc1ncnc2c1ncn2[C@H]1CN(CCN2CCOCC2)C[C@@H](CO)O1`, inactive: 4.06%. For the compound `O=C(c1cc2cc([N+](=O)[O-])ccc2oc1=O)N1CCN(C2CCCCC2)CC1`, the “growth rescue (activation)” value was inactive: 14.6%. Regarding `CCCCn1c(CCC(=O)O)nc2cc(S(=O)(=O)N(CC)CC)ccc21`, the “growth rescue (activation)” value was inactive: 17%.

Regarding `CC(C)C1N(C(=O)CN2CCCC2)CCN1S(=O)(=O)c1ccccc1` (stereo not drawn), the “growth rescue (activation)” value was inactive: 16.5%. To `COC(=O)Cc1c(C)c2ccc(O)c(CNCc3ccc(OC)c(OC)c3)c2oc1=O` belongs inactive: -3.87%; to `O=C(CSc1nnc2c(n1)[nH]c1ccccc12)Nc1nncs1`, inactive: -2.1%. `CCOC(=O)NNS(=O)(=O)c1cc(Br)ccc1Br`: the “growth rescue (activation)” value is inactive: 1.55%. `CC(NS(=O)(=O)c1ccc2c(c1)C(=O)c1cc(S(=O)(=O)NC(C)C(=O)O)ccc1-2)C(=O)O` (stereo not drawn): the “growth rescue (activation)” value was inactive: -11.9%. With `CCOc1ccc(NCc2nnc(SCC(=O)Nc3nc(-c4ccccc4)cs3)n2-c2ccccc2)cc1`, the “growth rescue (activation)” value is inactive: 4.46%. In the case of `COCCCNS(=O)(=O)c1ccc(C)cc1`, the “growth rescue (activation)” value is inactive: -10.5%. For `COc1ccc(C2=NC(C)(C)N(CC(=O)Nc3cc(OC)cc(OC)c3)C2=O)cc1`, the “growth rescue (activation)” value was inactive: 18.8%. For `COc1ccc(NC(=S)NC(C)C(c2ccccc2)N2CCOCC2)cc1` (stereo not drawn) the value was inactive: -12.3%. As to `CCNC(=O)C1CCCN(C(=O)c2ccc(-c3ccccc3)cc2)CC1` (stereo not drawn), the “growth rescue (activation)” value is inactive: 13%.

Consider `CCN(C(=S)Nc1cc(S(=O)(=O)N2CCOCC2)ccc1Cl)c1cccc2ccccc12`, for which the “growth rescue (activation)” value is inactive: 6.2%. Take `N#Cc1ccc(Cl)cc1NC(=O)COC(=O)[C@H](CCC(N)=O)NC(=O)c1ccc(F)cc1`: the “growth rescue (activation)” value is inactive: -8.86%.

For `CC(C)OC(=O)/C(C#N)=C\c1cccnc1`, the “growth rescue (activation)” value is inactive: -0.102%. For `C=CCc1ccc(OCCOCCOc2cccc3cccnc23)c(OC)c1` the value was inactive: -4.17%; for `O=C(Nc1cc(Cl)ccc1N1CCOCC1)C1CC1`, inactive: 31.6%; for `Cc1cc(C)c(NC(=O)COC(=O)c2ccncc2)c(C)c1`, inactive: 4.01%.

Consider `O=C(Cc1ccccc1)NNC(=S)Nc1ccccc1`, for which the “growth rescue (activation)” value was inactive: -4.93%.

For the compound `Cc1cccc(OCC(=O)Nc2ccc3c(c2)nc(CN2CCCCC2)n3C)c1`, the “growth rescue (activation)” value was inactive: -23.5%. For `COc1ccccc1CNC(=O)N1CCN(S(=O)(=O)c2ccccc2)CC1`, the “growth rescue (activation)” value was inactive: 3.26%. For the compound `Cc1onc(-c2ccccc2Cl)c1C(=O)N1CCCCC1`, the “growth rescue (activation)” value was inactive: 11.1%. With `O=C(CSCc1ccc(C(=O)O)cc1)Nc1ccccc1`, the “growth rescue (activation)” value was inactive: -4.5%.

As to `COc1ccc(-c2c(C)[nH]n3c(=O)c(Cc4ccccc4)c(C)nc23)cc1OC`, the “growth rescue (activation)” value was inactive: 10.5%. Regarding `CNc1nc(NCCOC23CC4CC(CC(C4)C2)C3)nc(OCC(F)(F)F)n1`, the “growth rescue (activation)” value is inactive: 24.3%.

For `CCn1c(=O)c2c(nc(SCC(=O)NC3CCCC3)n2C)n(C)c1=O`, the “growth rescue (activation)” value is inactive: -8.32%.

Consider `O=C(CCS(=O)(=O)c1ccccc1Cl)NC1CCCCCC1`, for which the “growth rescue (activation)” value is inactive: 25.6%. Consider `O=C(COC(=O)/C=C/c1ccccc1Cl)NCC1CCCO1` (stereo not drawn), for which the “growth rescue (activation)” value was inactive: 6.37%. As to `CC(=O)NC1(c2nnnn2CCOC(=O)Nc2ccc(Cl)cc2)CCCC1`, the “growth rescue (activation)” value is inactive: 7.89%. `CN(C(=O)COC(=O)c1cc(-c2ccccc2Cl)nc2ccccc12)C1CCS(=O)(=O)C1` (stereo not drawn): the “growth rescue (activation)” value was inactive: 6.71%. Consider `COc1ccc(C(=O)N(Cc2sccc2C)C2CCS(=O)(=O)C2)cc1` (stereo not drawn), for which the “growth rescue (activation)” value is inactive: 11.8%.

In the case of `COCC(=O)N/N=C(\C)CC(=O)NCc1ccco1`, the “growth rescue (activation)” value is inactive: -12.2%. For `O=C(CNc1ccc2ccccc2c1)N/N=C/c1ccc([N+](=O)[O-])o1` the value was inactive: 14.5%.

`O=C(CCN1C(=O)/C(=C/c2ccccc2Cl)SC1=S)NNC(=O)c1ccccc1O`: the “growth rescue (activation)” value is inactive: 1.25%. Turning to `CCCCOC(=O)C[N+](C)(C)CCOC1CC2CCC1(C)C2(C)C` (stereo not drawn), the “growth rescue (activation)” value is inactive: -0.199%.

`COc1ccc(C=O)cc1Cn1c(=O)n(CCC(=O)NCc2ccco2)c(=O)c2sccc21`: the “growth rescue (activation)” value was inactive: 2.45%.

For `COc1cc(O)c(/C=N/NC(=O)c2ccncc2)c(OC)c1[N+](=O)[O-]`, the “growth rescue (activation)” value is inactive: 7.59%.

As to `Fc1ccc(-c2[nH]ncc2CN(CC2CCC2)CC2CCCO2)c(F)c1` (stereo not drawn), the “growth rescue (activation)” value is inactive: 10.9%. `O=C(Nc1cccnc1)c1cccc(-c2cc3ccccc3oc2=O)c1`: the “growth rescue (activation)” value was inactive: 1.9%. Consider `CCOc1ccc(NC(=O)CNC(=O)c2nn(-c3ccc(OC)c(OC)c3)c(=O)c3ccccc23)cc1`, for which the “growth rescue (activation)” value was inactive: -0.23%. For `O=C(NC1CC1)C1CCN(C2CCN(C(=O)Cc3ccc4c(c3)OCO4)CC2)CC1` the value was inactive: 8.97%; for `Cc1nccn1-c1ccc(C=O)cc1`, inactive: -3.48%.

As for `CCOc1cc(C(=O)Nc2ccc(S(=O)(=O)Nc3onc(C)c3C)cc2)cc(OCC)c1OCC`, the “growth rescue (activation)” value is inactive: 5.72%. Consider `CCOc1ccc(Br)cc1S(=O)(=O)N1CCC(C(=O)O)CC1`, for which the “growth rescue (activation)” value was inactive: 15.8%. `Cc1ccc(-c2nc(C#N)c(N3CCC(C(N)=O)CC3)o2)cc1`: the “growth rescue (activation)” value was inactive: 1.31%. In the case of `CC(C)[C@H](NS(=O)(=O)c1cccc(C(F)(F)F)c1)C(=O)OCC(=O)NC(=O)NCc1ccco1`, the “growth rescue (activation)” value was inactive: 30.4%. Regarding `CCN1CCC(NC(=O)Nc2cc(Cl)ccc2OC)CC1`, the “growth rescue (activation)” value was inactive: 0.945%. `O=[N+]([O-])c1ccc(Oc2ccc(/C=N/O)cc2)nc1`: the “growth rescue (activation)” value is inactive: 29.6%. For `CCN(CC)CCN1CCN(c2cncc(-c3ccc4ccccc4c3)n2)CC1` the value was inactive: -0.865%; for `c1csc(-c2nc(NCC3CCCO3)c3ccccc3n2)c1` (stereo not drawn), inactive: 5.57%. Consider `CCOc1ccc(NC(=O)C2C(c3ccccc3)C2(Cl)Cl)cc1` (stereo not drawn), for which the “growth rescue (activation)” value was inactive: 8.96%. In the case of `C#CCOc1ccc(Cl)cc1/C=C1/C(=O)ON=C1C`, the “growth rescue (activation)” value is inactive: -13.9%. As for `CC(NC(=O)Cn1cccc1C(=O)c1ccccc1)c1ccc2c(c1)OCCO2` (stereo not drawn), the “growth rescue (activation)” value is inactive: 16.3%.

Values taken from PubChem BioAssay AID1347073 (National Center for Advancing Translational Sciences (NCATS), 2019).
